Test results from the antibiotic and cytotoxicity screens of Wong et al. (2023).
This is one part of the list.

Test system: S. aureus RN4220
Test: growth inhibition call (relative growth <= 0.2)
Conditions: 50 µM

Growth inhibition call, inactive:
COc1ccc(NC(=O)N(C)C[C@H]2Oc3ccc(NS(=O)(=O)c4c(C)noc4C)cc3CC(=O)N([C@H](C)CO)C[C@@H]2C)cc1
C[C@@H]1CN([C@@H](C)CO)C(=O)c2cc(NS(=O)(=O)c3ccc(Cl)cc3)ccc2O[C@@H](C)CCCCO[C@@H]1CN(C)Cc1ccc(C(=O)O)cc1
C=C1C(=O)C(O)[C@H]2O[C@H]2C1=O (some centres not stated)
C[C@H](CO)N1C[C@H](C)[C@H](CN(C)S(=O)(=O)c2cn(C)cn2)Oc2c(NC(=O)CCCCCC(=O)Nc3ccccc3N)cccc2C1=O
O=C(CN1CCOCC1)NCC[C@H]1CC[C@@H](NC(=O)c2ccc3c(c2)OCO3)[C@H](CO)O1
Nc1ncc(O)cn1
C[C@H](CO)N1C[C@H](C)[C@@H](CN(C)Cc2ccc(Cl)c(Cl)c2)Oc2c(NC(=O)CCCCCC(=O)Nc3ccccc3N)cccc2C1=O
COCC(=O)N1C[C@@H](C)[C@@H](OC)CN(C)C(=O)c2cc(NC(=O)c3ccc(OC)cc3)ccc2OC[C@@H]1C
Cc1noc(C)c1NC(=O)Nc1ccc2c(c1)C(=O)N([C@H](C)CO)C[C@@H](C)[C@H](CN(C)C(=O)Nc1ccc(C(F)(F)F)cc1)O2
C/C=C/c1ccc2c(c1)O[C@H](CN(C)Cc1ccc(C(=O)O)cc1)[C@H](C)CN([C@H](C)CO)S2(=O)=O
COc1cc(O)c2c(=O)c(O)c(-c3ccccc3)oc2c1
O=C(O)/C=C/C(=O)N1CCN(C(=O)/C=C/C(=O)O)CC1
